Screen size: about 310,000 compounds; about 14,000 (4.5%) showed an effect of 50% or more. Effects have a minus sign here. The list shows a part of the results.
biological target: human ether-à-go-go-related gene (hERG) potassium channel (human, UniProt Q12809); assay: primary screen, population patch clamp on CHO cells stably expressing hERG
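Also: peak tail current of the secondary pulse compared with the same well before compound.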

Sequence of human ether-à-go-go-related gene (hERG) potassium channel (Q12809 whole entry, looked up): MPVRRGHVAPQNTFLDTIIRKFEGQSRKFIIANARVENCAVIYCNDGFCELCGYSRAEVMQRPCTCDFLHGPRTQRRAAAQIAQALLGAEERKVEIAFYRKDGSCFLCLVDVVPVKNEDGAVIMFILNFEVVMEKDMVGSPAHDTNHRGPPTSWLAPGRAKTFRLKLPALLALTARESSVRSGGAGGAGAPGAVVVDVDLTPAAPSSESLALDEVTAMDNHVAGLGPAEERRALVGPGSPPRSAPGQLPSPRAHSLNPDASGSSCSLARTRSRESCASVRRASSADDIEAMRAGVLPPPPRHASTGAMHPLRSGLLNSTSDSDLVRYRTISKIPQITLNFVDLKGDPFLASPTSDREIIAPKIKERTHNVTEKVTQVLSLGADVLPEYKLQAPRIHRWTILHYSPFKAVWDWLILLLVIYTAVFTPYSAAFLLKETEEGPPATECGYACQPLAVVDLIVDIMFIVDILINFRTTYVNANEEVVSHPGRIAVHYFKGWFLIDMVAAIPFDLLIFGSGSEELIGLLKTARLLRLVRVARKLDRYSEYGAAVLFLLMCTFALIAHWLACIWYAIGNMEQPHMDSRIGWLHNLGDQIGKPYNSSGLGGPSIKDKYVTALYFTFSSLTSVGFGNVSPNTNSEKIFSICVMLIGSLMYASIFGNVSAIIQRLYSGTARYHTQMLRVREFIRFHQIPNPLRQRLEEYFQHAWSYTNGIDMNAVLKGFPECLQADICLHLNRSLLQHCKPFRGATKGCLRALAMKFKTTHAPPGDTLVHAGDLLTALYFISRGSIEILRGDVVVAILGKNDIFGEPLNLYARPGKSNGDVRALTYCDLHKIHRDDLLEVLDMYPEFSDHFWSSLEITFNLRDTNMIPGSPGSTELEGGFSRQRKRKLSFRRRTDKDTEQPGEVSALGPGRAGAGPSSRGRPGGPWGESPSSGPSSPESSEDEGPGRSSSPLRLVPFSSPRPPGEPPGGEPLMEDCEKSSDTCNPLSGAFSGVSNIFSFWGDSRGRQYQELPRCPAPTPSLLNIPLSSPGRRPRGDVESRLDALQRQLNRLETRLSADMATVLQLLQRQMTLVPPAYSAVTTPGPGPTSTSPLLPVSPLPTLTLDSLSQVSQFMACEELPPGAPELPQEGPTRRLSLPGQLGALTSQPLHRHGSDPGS

Row | Compound | hERG current change (%, negative = inhibition) at 10uM
1 | CCc1nn2c(NCCOC)cc(C)nc2c1-c1ccc(F)cc1 | -3.29%
2 | CCn1c(N2CCN(Cc3ccc([N+](=O)[O-])cc3)CC2)nc2ccccc21.Cl | -74.7%
3 | CC(=O)NC1CC2CCC(C1)N2Cc1ccc(C)cc1 (stereo not drawn) | -25.4%
4 | O=C(CSc1nncc2ccccc12)Nc1ccc(F)cc1 | 16.8%
5 | CCCc1ccccc1OCCNC(=O)c1cc(=O)n(C)c(=O)n1C | -10.6%
6 | CCOC(=O)c1ccccc1NC(=O)C1CCCO1 (stereo not drawn) | 2.74%
7 | CSc1nc(-c2ccc(Cl)cc2)c(C#N)c(=O)n1C | 15.6%
8 | O=C(NCCS(=O)(=O)c1ccc(Br)cc1)c1ccccc1Cl | 9.41%
9 | Cc1ccc(/C=N/n2cc(-c3ccccc3)[nH]c2=S)s1 | 30.6%
10 | CCCN1CCC2(CC1)NC(CO)(CO)CO2 | 10.9%
11 | Cc1ccc(C(=O)N2CCOCC2)c(F)c1F | 6.52%
12 | O=C(Nc1cccc(-n2cnnn2)c1)c1cc(Cl)ccc1Cl | -2.42%
13 | O=C(NC1CCCC1)C(c1ccc(F)cc1)N(C(=O)Cc1cccs1)c1ccc2c(c1)OCCO2 (stereo not drawn) | 85.8%
14 | O=C(Cc1ccc(Cl)cc1)NCC(=O)N1CCCCCC1 | -12.8%
15 | Oc1ccc(C[C@H]2NCCc3cc(O)c(O)cc32)cc1O | 2.62%
16 | Cc1nn(-c2ccccc2)c(NC(=O)c2cccs2)c(-c2ccccc2)c1=O | 11.8%
17 | CCOC(=O)/C(C#N)=C/c1c(N2CCN(C)CC2)nc2c(C)cccn2c1=O | -26.1%
18 | CC(C(=O)N1CCCC1)N(C)CC(=O)Nc1cccc(F)c1 (stereo not drawn) | -0.435%
19 | CCc1ccc(NC(=O)CSc2nc3ccccc3c(=O)n2CCN2CCOCC2)cc1 | -67.6%
20 | O=C(CN1CCN(c2ccccc2)CC1)Nc1ccc(F)cc1 | -39.7%
21 | CC1(C)Cc2c(sc(NC(=O)C(=O)N3CCOCC3)c2C#N)CO1 | 17.7%
22 | NC(=O)COc1ccc(Nc2nnc(-c3ccc(O)cc3)c3ccccc23)cc1 | -23.2%
23 | COc1cc(C(=O)NNc2nc3cc4c(cc3s2)OCO4)cc(OC)c1OC | 4.6%

Row | Compound | hERG current change (%, negative = inhibition) at 10uM
24 | CC(=O)N1c2ccc(S(=O)(=O)N3CCCC(C(=O)Nc4cccc(Cl)c4)C3)cc2CC1C (stereo not drawn) | 6.1%
25 | COc1ccc(NC(=O)NNC(=O)c2cc3ccccc3cc2O)cc1 | 18.2%
26 | COc1ccc(S(=O)(=O)N(Cc2ccccc2)c2ccccc2C(=O)Nc2ccccc2C(=O)NCc2ccco2)cc1 | 20.3%
27 | CC(=O)Oc1ccc2c(=O)c(N3C(=O)c4ccccc4C3=O)c(C)oc2c1 | 3.08%
28 | c1cc2c(nn1)CCc1nonc1-2 | 21.9%
29 | CCN1C(=O)[C@H]2[C@@H](c3ccc(C)cc3)N3C(=O)N(c4cccc(Br)c4)C(=O)[C@@]3(CC)[C@H]2C1=O | 0.974%
30 | c1ccc(CNc2c3c(nc4ncnn24)CCC3)cc1 | -0.503%
31 | CC(C)(CC(=O)O)CC(=O)N1CCN(c2nc3ccc(Cl)cc3s2)CC1 | 14.2%
32 | COc1ccc(NC(=O)c2ccccc2NC(=O)C2CCCO2)cc1 (stereo not drawn) | 2.9%
33 | COc1ccccc1Nc1nnc(SCc2cc(=O)n3ccsc3n2)s1 | -8.42%
34 | COC(=O)C(C)Sc1ncnc2c1c(-c1ccccc1)cn2-c1ccc(OC)cc1 (stereo not drawn) | 4.16%
35 | Cc1c(NC(=O)c2c(O)c3ccccc3n(C)c2=O)c(=O)n(-c2ccccc2)n1C | 16.2%
36 | COC(=O)c1ccccc1NC(=O)COc1ccc(S(=O)(=O)NC(C)C)cc1 | 36.2%
37 | CCOc1ccc(NC(=O)C(CC(=O)O)Cc2ccccc2)cc1 (stereo not drawn) | 5.94%
38 | CSc1ccc(S(=O)(=O)NCc2ccc(Cl)cc2Cl)cc1 | -1.53%
39 | COc1cc(C2CC(=O)Nc3ccccc3S2)cc(OC)c1OC (stereo not drawn) | -12.7%
40 | CCS(=O)(=O)N1CCC(C(=O)NCc2ccc(F)cc2Cl)CC1 | 10.5%
41 | COc1ccc(OC)c2sc(NNC(=O)C3COc4ccccc4O3)nc12 (stereo not drawn) | 11.7%
42 | COc1ccc(/C=N/NC(=O)CCNc2n[nH]c(=O)[nH]c2=O)c(OC)c1 | 27%
43 | COc1ccc(-c2[nH]nc3c2C(c2ccoc2)C(C#N)=C(N)O3)cc1 (stereo not drawn) | -5.89%
44 | CCc1cccc(NC(=S)N2CCC(c3ccccc3)C2)c1 (stereo not drawn) | 8.17%
45 | CCCNc1ncnc2nc[nH]c12 | -9.64%

From paper PMC4336329 (PLoS ONE, 2015)
